Laboratory results from article PMC4336329 (PLoS ONE, 2015).
The campaign covered roughly 310,000 compounds. About 14,000 (4.5%) showed an effect of 50% or more. Effects have a minus sign here. The list shows a part of the results.

target: human ether-à-go-go-related gene (hERG) potassium channel (human, UniProt Q12809); assay: primary screen, population patch clamp on CHO cells stably expressing hERG
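Also: peak tail current of the secondary pulse compared with the same well before compound.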

Chain of human ether-à-go-go-related gene (hERG) potassium channel (Q12809 whole entry, looked up): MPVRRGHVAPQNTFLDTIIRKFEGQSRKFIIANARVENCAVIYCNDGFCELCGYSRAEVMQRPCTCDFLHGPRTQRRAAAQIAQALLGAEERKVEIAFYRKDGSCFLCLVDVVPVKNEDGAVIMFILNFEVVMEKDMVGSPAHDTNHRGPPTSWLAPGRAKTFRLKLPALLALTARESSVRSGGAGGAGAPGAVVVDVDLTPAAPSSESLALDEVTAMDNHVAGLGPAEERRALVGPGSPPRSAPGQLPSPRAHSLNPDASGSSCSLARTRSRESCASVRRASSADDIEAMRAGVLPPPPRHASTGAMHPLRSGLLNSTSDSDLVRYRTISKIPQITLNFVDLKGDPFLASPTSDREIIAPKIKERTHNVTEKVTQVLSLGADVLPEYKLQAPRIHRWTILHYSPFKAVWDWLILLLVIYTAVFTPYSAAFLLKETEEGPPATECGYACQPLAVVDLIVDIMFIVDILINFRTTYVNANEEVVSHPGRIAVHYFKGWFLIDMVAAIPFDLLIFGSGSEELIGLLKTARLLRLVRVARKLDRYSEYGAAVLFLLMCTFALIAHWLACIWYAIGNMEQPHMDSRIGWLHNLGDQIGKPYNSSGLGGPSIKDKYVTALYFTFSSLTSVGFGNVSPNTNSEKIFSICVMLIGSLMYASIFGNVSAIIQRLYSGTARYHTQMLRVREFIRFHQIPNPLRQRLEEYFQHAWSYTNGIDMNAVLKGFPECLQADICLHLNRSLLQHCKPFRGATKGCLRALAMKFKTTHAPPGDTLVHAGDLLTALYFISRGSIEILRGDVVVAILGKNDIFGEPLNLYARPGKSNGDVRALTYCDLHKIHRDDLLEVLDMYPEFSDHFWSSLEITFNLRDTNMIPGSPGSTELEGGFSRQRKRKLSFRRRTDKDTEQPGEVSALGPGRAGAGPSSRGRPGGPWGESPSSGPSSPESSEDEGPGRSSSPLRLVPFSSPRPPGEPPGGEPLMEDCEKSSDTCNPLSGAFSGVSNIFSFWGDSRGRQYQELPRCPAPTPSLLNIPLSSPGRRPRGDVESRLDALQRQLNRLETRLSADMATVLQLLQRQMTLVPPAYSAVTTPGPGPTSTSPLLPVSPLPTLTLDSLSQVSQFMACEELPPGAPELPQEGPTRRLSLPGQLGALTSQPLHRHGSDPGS

SMILES	hERG current change (%, negative = inhibition) at 10uM
O=C(NC1CCCCCC1)C1C2C=CC3(CN(Cc4cccnc4)C(=O)C13)O2 (centres unmarked)	-2.3%
O/N=C/c1ccccc1OCc1ccc(Cl)cc1	5.5%
Cc1ccc(NC(=O)CCN2C(=O)NC3(CCCC3)C2=O)cc1S(=O)(=O)N1CCOCC1	-11.9%
Cc1cc(C)nc(NC2=NCC(=O)N2c2ccccc2Br)n1	8.96%
COC(=O)[C@]12C(=O)C(C)=C(O)[C@@]1(C)C(C)=CC1[C@@]34CC[C@@H](OC(C)=O)C(C)(C)C3C(C[C@]12C)OC4=O (some centres unmarked)	5.03%
CC(=O)NC12CC3CC(C1)CC(C(=O)N1CCN(S(=O)(=O)c4ccc(Cl)s4)CC1)(C3)C2	-24.1%
CCOC(=O)C(/C=N/c1cc(C)nn1-c1ccccc1)=C(\C)O	11.8%
Cc1ccc(S(=O)(=O)N(C)C)cc1NC(=O)C1CCC1	12.2%
Cc1ccn2cc(C(=O)N3CCCC(Nc4ccc(F)cc4)C3)nc2c1 (centres unmarked)	3.02%
CN1CCN(c2nc3c(c(=O)n(C)c(=O)n3C)n2CCSc2nc3ccccc3s2)CC1	0.984%
Cc1ccc(CSc2nnc(-c3cccnc3)n2N)cc1	18%
Cc1ccc(NC(=O)C2CC(c3ccc(F)cc3)=NO2)cc1 (centres unmarked)	17.6%
C=CCOc1ccc(/C=N/NC(=O)c2cc3c(OC)cc(OC)cc3[nH]2)cc1	19.6%
C/C=C/c1ccc(OCCOc2cc(C=O)ccc2OC)c(OC)c1	5.07%
COc1ccc(N(CC(=O)N2CCCCCC2)S(C)(=O)=O)cc1Cl	8.46%
Cc1ccc(S(=O)(=O)Cc2ccc(C(=O)OCc3ccccc3)cc2)cc1	-8.39%
Br.CCN1CCN(CC(=O)c2ccc(OC)cc2)CC1	-2.05%
O=C(CSc1cccc[n+]1[O-])Nc1ccc(C(F)(F)F)cc1[N+](=O)[O-]	4.31%
CCCn1c(=O)c(C(=O)Nc2ccccc2C(=O)OC)c(O)c2ccccc21	5.91%
O=C(NS(=O)(=O)Oc1cccc(Cl)c1Cl)OC[C@@H]1CCCN2CCCCC12 (some centres unmarked)	15.3%
CC(C)[C@H](NC(=O)c1ccco1)C(=O)OCC(=O)Nc1cccc(F)c1	-23.8%
CCc1onc(C)c1C(=O)Nc1cc(C)ccc1OC	5.17%

SMILES	hERG current change (%, negative = inhibition) at 10uM
Cc1ccc(-n2c(SCC(=O)NCc3ccco3)nc3c([nH]c4ccccc43)c2=O)cc1	7.27%
O=C(CN1CCC(O)(c2ccc(F)cc2)CC1)NCc1ccc(F)cc1	-34.2%
COc1ccccc1OCC(=O)NCC1CCCCC1	-11%
O=C(Nc1ccncc1)c1ccc(Cl)c(S(=O)(=O)N2CCCC2)c1	-42.3%
COc1ccccc1NC(=O)NC1(C(=O)N2CCCCC2)CCCCC1	10.8%
Cc1c(C2C(C#N)=C(N)OC3=C2C(=O)CCC3)cnn1C (centres unmarked)	23.2%
CCCCc1cc(=O)oc2cc(OCC(=O)NC3CCN(Cc4ccccc4)CC3)ccc12	-61.1%
COc1ccc(N2CC(C(=O)N[C@@H](C)C(=O)NC3CCCCC3)CC2=O)cc1 (some centres unmarked)	25.2%
c1ccc(-c2nc3ccccc3c3nc4ccccc4n23)cc1	-5.59%
O=C(CCC(=O)c1cccs1)NCC(=O)Nc1ccc(F)c(F)c1F	5.26%
COc1cc(NC(=O)c2cccs2)c(OC)cc1NC(=O)Nc1ccc(F)cc1	13.4%
COc1cc(C(=O)N2CCC(N3CCCCCC3)CC2)cc(OC)c1OC.O=C(O)C(=O)O	-2.57%
O=C(CCN1C(=O)c2ccc([N+](=O)[O-])cc2C1=O)Nc1ccc(O)cc1C(=O)O	75.4%
COc1ccc(NC(=O)C2CCCN(S(C)(=O)=O)C2)cc1 (centres unmarked)	24.5%
COc1cc(C(=O)NC(=S)NC(C)C)cc(OC)c1OC	-17.3%
Cc1ccc(NC(=O)c2cnccn2)cc1S(=O)(=O)N(C)C	10.5%
Cc1cccc(NS(=O)(=O)c2cccs2)n1	14.8%
Cc1ccc(NC(=S)N(Cc2cccc(Br)c2)CC2CCC(C(=O)O)CC2)cc1Cl (centres unmarked)	-1.2%
CN(C)CCN(CC1CCCN(Cc2ccccc2F)C1)C(=O)Cc1ccccc1F (centres unmarked)	-0.047%
COc1ccccc1NC(=O)Cc1nnc(SCC(=O)c2ccccc2)n1C	16%
COC(=O)C1=C(C)N(C)C(C)=C(C(=O)OC)C1c1cccc(Br)c1	-13.4%
CCN1CCN(CCCNC(=O)c2ccc(/C=C3/Sc4ccccc4N(Cc4ccccc4F)C3=O)cc2)CC1	-19.9%
